Experimental data reported in a compilation of properties of binary mixtures (doi:10.1080/00986445.2015.1114477).
Some of these densities may be calculated back from excess volumes.

Assay: xn = mol fraction of the nth substance listed
Conditions: 100 kPa

CN1CCCC1=O + CCCCCCCCn1cc[n+](C)c1.[Cl-]
x1 = 1
Conditions | mass density [kg/m3]
288.15 K | 1037
298.15 K | 1028.1
303.15 K | 1023.6
308.15 K | 1019.1
313.15 K | 1014.7
323.15 K | 1005.8
328.15 K | 1001.3
333.15 K | 996.8

CN1CCN(C)C1=O + CCCCCCCCn1cc[n+](C)c1.[Cl-]
mass density [kg/m3]
Conditions | 288.15 K | 293.15 K | 298.15 K | 303.15 K | 308.15 K | 313.15 K | 318.25 K | 323.15 K | 328.15 K | 333.15 K
x2 = 0 | 1060.8 | 1056.3 | 1051.9 | 1047.5 | 1043.1 | 1038.7 | – | 1029.9 | 1025.5 | 1021.1
x2 = 0.105 | 1055.7 | 1051.6 | 1047.6 | 1043.6 | 1039.5 | 1035.5 | 1031.5 | 1027.5 | – | 1019.5
x2 = 0.2056 | 1049.5 | 1045.7 | 1041.9 | – | 1034.3 | 1030.5 | 1026.7 | 1023 | 1019.2 | 1015.5
x2 = 0.3018 | – | 1040.5 | 1036.8 | 1033.2 | 1029.6 | 1026 | – | 1018.8 | 1015.2 | 1011.7
x2 = 0.3991 | 1039.2 | – | 1032.1 | 1028.6 | 1025.1 | 1021.6 | 1018.2 | 1014.8 | – | 1007.9
x2 = 0.4964 | – | 1031.2 | 1027.8 | – | 1021 | – | 1014.2 | – | 1007.6 | 1004.3
x2 = 0.6016 | 1029.9 | 1026.7 | 1023.4 | 1020.2 | 1016.9 | 1013.6 | 1010.3 | 1007.1 | 1003.9 | 1000.7
x2 = 0.7007 | 1025.9 | 1022.7 | 1019.5 | 1016.4 | 1013.2 | 1010.1 | 1007 | 1003.8 | 1000.6 | –
x2 = 0.7994 | 1022.2 | – | 1016 | 1013 | – | – | 1003.8 | 1000.8 | 997.7 | 994.7
x2 = 0.8988 | 1018.9 | 1015.8 | 1012.8 | 1009.8 | 1006.8 | 1003.9 | 1000.9 | 997.9 | 995 | –

CN1CCCC1=O + CCCCCC[n+]1ccn(C)c1.[Cl-]
x1 = 1
Conditions | mass density [kg/m3]
288.15 K | 1037
293.15 K | 1032.5
298.15 K | 1028.1
303.15 K | 1023.6
308.15 K | 1019.1
313.15 K | 1014.7
318.25 K | 1010.2
323.15 K | 1005.8
328.15 K | 1001.3
333.15 K | 996.8

CN1CCN(C)C1=O + CCCCCC[n+]1ccn(C)c1.[Cl-]
mass density [kg/m3]
Conditions | 288.15 K | 293.15 K | 298.15 K | 303.15 K | 308.15 K | 313.15 K | 318.25 K | 323.15 K | 328.15 K | 333.15 K
x2 = 0 | – | 1056.3 | 1051.9 | 1047.5 | – | 1038.7 | 1034.3 | 1029.9 | – | 1021.1
x2 = 0.1007 | – | 1058.5 | 1054.4 | 1050.4 | 1046.3 | 1042.3 | – | – | 1030.2 | 1026.2
x2 = 0.1999 | 1062.1 | 1058.2 | 1054.4 | – | – | 1043 | 1039.2 | 1035.4 | 1031.6 | 1027.8
x2 = 0.2985 | 1060.9 | 1057.2 | 1053.6 | 1049.9 | 1046.3 | 1042.7 | 1039.1 | – | 1032 | –
x2 = 0.3856 | 1059.6 | 1056.1 | 1052.5 | 1049 | – | 1042.1 | – | 1035.2 | 1031.8 | 1028.4
x2 = 0.4985 | 1057.2 | 1053.8 | 1050.5 | 1047.1 | 1043.8 | 1040.5 | 1037.2 | – | 1030.6 | 1027.3
x2 = 0.6069 | 1054.4 | 1051.2 | 1048 | 1044.8 | 1041.6 | 1038.4 | 1035.2 | 1032.1 | 1028.9 | 1025.7
x2 = 0.6969 | 1052.2 | 1049 | 1045.9 | 1042.8 | 1039.7 | 1036.6 | – | 1030.4 | 1027.3 | 1024.2
x2 = 0.7981 | 1049.5 | 1046.5 | 1043.4 | 1040.4 | 1037.3 | 1034.3 | 1031.4 | 1028.4 | 1025.4 | 1022.4
x2 = 0.8903 | 1047.2 | – | 1041.2 | – | 1035.3 | 1032.3 | 1029.4 | 1026.5 | – | 1020.6

CCCCCC[n+]1ccn(C)c1.[Cl-] + CN1CCN(C)C1=O
x1 = 1
Conditions | mass density [kg/m3]
288.15 K | 1044.5
293.15 K | 1041.6
298.15 K | 1038.6
303.15 K | 1035.7
308.15 K | 1032.8
318.25 K | 1027.1
323.15 K | 1024.2
328.15 K | 1021.3

CCCCCCCCn1cc[n+](C)c1.[Cl-] + CN1CCN(C)C1=O
x1 = 1
Conditions | mass density [kg/m3]
288.15 K | 1015.3
293.15 K | 1012.3
298.15 K | 1009.4
303.15 K | 1006.5
308.15 K | 1003.5
313.15 K | 1000.6
323.15 K | 994.8
328.15 K | 991.9
333.15 K | 989

CCCCCCCCn1cc[n+](C)c1.[Cl-] + CN1CCCC1=O
mass density [kg/m3]
Conditions | 288.15 K | 293.15 K | 298.15 K | 303.15 K | 308.15 K | 313.15 K | 318.25 K | 323.15 K | 328.15 K | 333.15 K
x2 = 0 | 1015.3 | 1012.3 | 1009.4 | – | 1003.5 | 1000.6 | 997.7 | 994.8 | 991.9 | 989
x2 = 0.1041 | 1017 | 1013.9 | 1010.9 | 1007.9 | 1004.9 | 1001.9 | 999 | 996 | 993 | 990.1
x2 = 0.21 | 1019.1 | 1016.1 | 1013 | 1009.9 | 1006.8 | 1003.8 | – | – | – | 991.6
x2 = 0.3221 | 1021.5 | – | – | 1012 | 1008.9 | 1005.7 | 1002.5 | 999.3 | 996.2 | 993
x2 = 0.43 | 1024.1 | 1020.8 | 1017.5 | 1014.2 | 1010.9 | 1007.6 | 1004.3 | 1001 | 997.8 | 994.5
x2 = 0.5321 | 1026.5 | 1023.1 | 1019.7 | 1016.2 | 1012.8 | 1009.4 | – | 1002.7 | 999.3 | 996
x2 = 0.6343 | 1029 | 1025.5 | 1021.9 | 1018.4 | 1014.8 | 1011.3 | 1007.8 | 1004.3 | 1000.8 | 997.4
x2 = 0.7195 | 1031.2 | 1027.6 | 1023.9 | 1020.2 | – | 1012.9 | 1009.3 | 1005.6 | 1002 | 998.4
x2 = 0.8143 | 1033.7 | 1029.9 | 1026 | 1022.2 | 1018.3 | 1014.5 | – | – | 1003 | 999.2
x2 = 0.9085 | 1036.1 | 1032 | 1027.9 | 1023.8 | – | 1015.6 | – | 1007.4 | 1003.3 | 999.2

CCCCCC[n+]1ccn(C)c1.[Cl-] + CN1CCCC1=O
mass density [kg/m3]
Conditions | 288.15 K | 293.15 K | 298.15 K | 303.15 K | 308.15 K | 313.15 K | 318.25 K | 323.15 K | 328.15 K | 333.15 K
x2 = 0 | – | 1041.6 | 1038.6 | 1035.7 | 1032.8 | 1029.9 | 1027.1 | – | 1021.3 | –
x2 = 0.11 | 1045.2 | 1042.2 | 1039.2 | 1036.2 | 1033.2 | – | – | 1024.3 | 1021.3 | 1018.3
x2 = 0.2211 | 1045.9 | 1042.8 | – | 1036.6 | – | 1030.4 | – | 1024.2 | 1021.2 | 1018.1
x2 = 0.3181 | 1046.5 | 1043.3 | – | 1036.9 | 1033.7 | 1030.5 | 1027.3 | – | 1020.9 | 1017.8
x2 = 0.4223 | 1046.8 | – | 1040.2 | – | 1033.5 | 1030.2 | – | – | – | 1017.1
x2 = 0.5271 | 1046.9 | 1043.4 | – | 1036.4 | 1033 | 1029.6 | 1026.1 | 1022.8 | 1019.4 | 1016
x2 = 0.6327 | 1046.5 | 1042.9 | 1039.3 | 1035.7 | 1032.1 | – | 1025 | 1021.5 | 1018 | 1014.5
x2 = 0.718 | 1045.8 | 1042.1 | – | 1034.7 | – | – | 1023.6 | 1019.9 | – | 1012.6
x2 = 0.8139 | 1044.5 | 1040.6 | – | 1032.8 | – | 1025 | 1021.2 | 1017.3 | 1013.4 | 1009.6
x2 = 0.9083 | 1042.2 | 1038 | 1033.9 | 1029.7 | 1025.6 | – | 1017.4 | 1013.2 | 1009.1 | –
